Laboratory results published in PubChem BioAssay AID1347165 (National Center for Advancing Translational Sciences (NCATS), 2019).
Values joined by “and” are separate entries in the source; they are usually repeats but may differ in a detail not shown here. Identical values can stand only once. Hit rate of the full screen: of about 220,000 compounds, about 5,700 (2.6%) were called active. Inconclusive results, whose numbers are uncertain, are shown with a selection of clear calls. Calls come from the whole dose curve; as a rule, active = well fitted inhibition curve with a large enough effect; inconclusive = small, poorly fitted or top-dose-only effect; inactive = no such curve, though single readings can be large or run the other way. Potencies beside an inconclusive call are fits to weak or partial responses and may not hold up.

target: Lysine-specific demethylase 5B (Homo sapiens) (UniProt Q9UGL1); assay: Primary screen for KDM5B Histone Demethylases FDH-coupled qHTS; settings: FDH-coupled NADH fluorescence (FDH is formaldehyde dehydrogenase); activity change, negative = inhibition: at 57.7 µM (top of the series) unless noted; note: nearly all actives have a fitted effect of over 70% in size; for activity change, negative = inhibition: 0% is about no effect
UniProt Q9UGL1, sequence (Q9UGL1 whole entry, looked up): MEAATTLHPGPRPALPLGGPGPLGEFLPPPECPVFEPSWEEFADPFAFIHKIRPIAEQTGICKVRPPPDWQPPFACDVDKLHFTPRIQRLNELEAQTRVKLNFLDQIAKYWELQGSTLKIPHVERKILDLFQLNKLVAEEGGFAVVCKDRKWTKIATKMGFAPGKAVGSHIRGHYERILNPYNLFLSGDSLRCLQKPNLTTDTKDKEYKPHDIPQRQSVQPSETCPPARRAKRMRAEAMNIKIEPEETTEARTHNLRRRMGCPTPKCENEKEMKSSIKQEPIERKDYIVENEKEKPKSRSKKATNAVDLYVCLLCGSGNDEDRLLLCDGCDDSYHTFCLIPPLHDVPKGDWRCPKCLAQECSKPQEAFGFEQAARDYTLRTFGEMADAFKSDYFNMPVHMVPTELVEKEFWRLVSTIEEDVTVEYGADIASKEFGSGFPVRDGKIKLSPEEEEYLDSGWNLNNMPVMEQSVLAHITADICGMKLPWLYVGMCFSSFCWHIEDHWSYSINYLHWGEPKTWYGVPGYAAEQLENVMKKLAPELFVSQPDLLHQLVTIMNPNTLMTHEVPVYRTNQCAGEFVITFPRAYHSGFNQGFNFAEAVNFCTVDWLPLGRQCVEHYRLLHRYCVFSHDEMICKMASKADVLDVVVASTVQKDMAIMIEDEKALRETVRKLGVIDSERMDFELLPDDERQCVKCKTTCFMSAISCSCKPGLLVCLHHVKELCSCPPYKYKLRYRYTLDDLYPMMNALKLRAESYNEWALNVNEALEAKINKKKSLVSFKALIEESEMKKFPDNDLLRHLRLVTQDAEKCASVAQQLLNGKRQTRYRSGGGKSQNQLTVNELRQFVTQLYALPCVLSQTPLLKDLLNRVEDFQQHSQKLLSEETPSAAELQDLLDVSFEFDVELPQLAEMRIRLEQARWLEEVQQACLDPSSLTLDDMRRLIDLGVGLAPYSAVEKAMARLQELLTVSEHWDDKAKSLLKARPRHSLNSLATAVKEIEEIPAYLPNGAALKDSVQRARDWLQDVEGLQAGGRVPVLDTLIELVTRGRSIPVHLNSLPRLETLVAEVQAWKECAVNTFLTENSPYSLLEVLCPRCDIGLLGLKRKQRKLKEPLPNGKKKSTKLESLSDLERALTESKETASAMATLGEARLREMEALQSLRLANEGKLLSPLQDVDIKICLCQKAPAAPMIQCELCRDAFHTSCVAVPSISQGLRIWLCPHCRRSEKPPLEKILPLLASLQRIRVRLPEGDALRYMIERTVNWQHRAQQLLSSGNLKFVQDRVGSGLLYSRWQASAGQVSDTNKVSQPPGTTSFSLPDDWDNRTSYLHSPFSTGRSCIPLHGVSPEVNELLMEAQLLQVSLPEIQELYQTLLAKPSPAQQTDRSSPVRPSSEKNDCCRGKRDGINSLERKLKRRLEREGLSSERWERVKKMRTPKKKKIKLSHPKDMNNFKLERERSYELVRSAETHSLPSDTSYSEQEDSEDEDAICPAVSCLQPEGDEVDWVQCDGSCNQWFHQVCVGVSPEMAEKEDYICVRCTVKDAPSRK
Method in brief: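 qHTS format, multiple compound concentrations. Buffer 50 mM HEPES pH 7.5/0.01% Tween-20; 200 nM KDM5BΔAP final; 10 min compound preincubation; substrate-mix levels 12.5 µM peptide, 25 µM α-KG, 0.25 mM NAD⁺; 30 min RT; ΔRFU.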
Potency is the fitted concentration of half-maximal effect; tags give direction and shape of the fitted curve.

| SMILES | activity change, negative = inhibition | Potency |
| --- | --- | --- |
| O=C1c2c(nc(CNCc3cccnc3)n2Cc2ccccc2)NCCN1Cc1cccc(Cl)c1 | inactive: -10.4% |  |
| CN1CCN(c2nc3c(c(=O)[nH]2)CCN(Cc2ccccc2Cl)CC3)CC1 |  | inconclusive: 7.08 µM [inhibitor, single point] |
| CC(=O)N1C[C@@H]2CCCN3CCC[C@@H]([C@H]23)[C@H]1CCCC(=O)NCCCN1CCCc2ccccc21 |  | inconclusive: 15.8 µM [inhibitor, partial curve, poor fit] |
| CCOC(=O)c1ccc(NC2=CC(c3ccc(Br)cc3)N(c3ccc(C(=O)OCC)cc3)C2=O)cc1 (configuration not stated) | inconclusive: -31% [inhibitor] |  |
| Cc1cccc(C2NC(=O)c3c(sc4c3CCN(C)C4)N2)c1O (configuration not stated) |  | inconclusive: 2 µM [inhibitor, partial curve, poor fit] |
| Cc1cccc(Oc2nc3c(C)cccn3c(=O)c2/C=C(\C#N)c2nc3ccccc3s2)c1 |  | inconclusive: 31.6 µM [inhibitor, partial curve, poor fit] |
| O=C(N/N=C/CCc1ccccc1)C1CC1 |  | inconclusive: 22.4 µM [inhibitor, partial curve, poor fit] |
| COCCCNC(=O)N1CCCCCCNC(=O)[C@@H]2CCCC[C@@H]21 | inactive: 13.6% |  |
| CCCOc1ccc(/C(O)=C2/C(=O)C(=O)N(CCCn3ccnc3)C2c2cccnc2)cc1 (configuration not stated) |  | inconclusive: 28.2 µM [inhibitor, single point] |
| Cc1ccc2c(c1)c(=O)c1ccccc1n2CCCC(=O)Nc1ccc(F)cc1F |  | inconclusive: 31.6 µM [inhibitor, partial curve, poor fit] |
| COc1ccc(-c2nccc3c(=O)cc(N4CCN(C)CC4)oc23)cc1OC | inactive: -13% [at 86.2 µM] |  |
| Cc1nn(-c2ccc(C(C)C)cc2)c(C)c1[C@@H]1C=C[C@@H](NC(=O)NCc2ccccc2)C1 | inactive: -18% [at 86.2 µM] |  |
| O=C([C@H]1Cc2ccccc2CN1)N1CCC(c2nccn2CC2CC2)CC1 | inactive: -21.2% |  |
| COC(=O)N1CCCN(c2nc3ncccc3o2)CC1 |  | active: 25.1 µM |
| Cc1nn(-c2ccccc2)nc1C(=O)Nc1nnc(C(F)(F)F)s1 |  | inconclusive: 39.8 µM [inhibitor, single point] |
| COCCNC(=O)c1ccc2c(c1)N(C)C(CC(=O)Nc1ccc[nH]c1=O)CO2 (configuration not stated) |  | active: 28.2 µM |
| O=C(c1ccco1)N(CCc1ccccc1)Cc1cccs1 | inactive: -4.43% |  |
| Cc1nnnn1-c1cccc(C(=O)N2CCCC3(CC2)CNC(=O)O3)c1 (configuration not stated) | inactive: -5.77% |  |
| O=S(=O)(/C=C/c1ccccc1)N1C=Cc2ccccc2C1c1c[nH]c2ccccc12 (configuration not stated) |  | inconclusive: 28.2 µM [inhibitor, partial curve, poor fit] |
| COc1ccc(NC(=O)c2c(NCc3ccc(C)o3)sc3c2CCC(C)C3)cc1 (configuration not stated) |  | inconclusive: 15.8 µM [inhibitor, partial curve, poor fit] |
| O[C@H]1[C@H](NCc2ccncc2)[C@H]2CO[C@H](O2)[C@@H]1N1CCC(Cc2ccccc2)CC1 |  | inconclusive: 35.5 µM [inhibitor, partial curve, poor fit] |

| SMILES | activity change, negative = inhibition | Potency |
| --- | --- | --- |
| CN(C)c1cccc(-c2cnc(Nc3cccc(N[S+](C)(=O)[O-])c3)c3c2CCO3)c1 |  | inconclusive: 14.1 µM [inhibitor, partial curve, poor fit] |
| O=C(NC1CCN(c2nc3ncccc3o2)CC1)c1cccc(Cl)c1 |  | active: 28.2 µM |
| Cc1oc(-c2nc(C#N)c(NCc3ccccc3)o2)cc1S(=O)(=O)N(C)C |  | inconclusive: 28.2 µM [inhibitor, partial curve, poor fit] |
| CCOC(=O)c1ccc(NC(=O)c2nc(S(=O)(=O)Cc3ccccc3)ncc2Cl)cc1 |  | inconclusive: 8.91 µM [inhibitor, partial curve, poor fit] |
| CCCC(=O)N1Cc2ccccc2CC2(CCCCN2Cc2ccccn2)C1 (configuration not stated) |  | inconclusive: 56.2 µM [inhibitor, single point] |
| Cc1ccc(C)c(NC(=O)C(=O)NCC(c2cccnc2)N2CCN(c3ccc(F)cc3)CC2)c1 (configuration not stated) | inactive: 3.46% |  |
| COc1ccc(CNC(=O)c2oc3c(c2C)-c2nn(Cc4ccccc4Cl)cc2CC3)cc1 |  | inconclusive: 7.94 µM [inhibitor, partial curve, poor fit] |
| N#Cc1cc2c(=O)n3ccccc3nc2n(-c2nnc(SCc3ccc(F)cc3)s2)c1=O |  | inconclusive: 2.51 µM [inhibitor, full curve, poor fit] |
| C[C@@H](NC(=O)c1cccn1C)c1c(-c2ccc(F)cc2)noc1C(=O)O |  | inconclusive: 31.6 µM [inhibitor, partial curve, poor fit] |
| C=C(Cl)CN1CCC(CNC(C)=O)CC1 | inactive: 10.5% |  |
| CC1CC2(CCCC2)Nc2ccc(F)cc21 (configuration not stated) |  | inconclusive: 8.91 µM [inhibitor, partial curve, poor fit] and inconclusive: 31.6 µM [inhibitor, single point] |
| O=C(Cc1ccccn1)N1CCC2(CC1)CCN(Cc1cccs1)c1ccccc1O2 |  | inconclusive: 25.1 µM [inhibitor, partial curve, poor fit] |
| COC(=O)c1cc(OC(=O)c2cc3ccccc3o2)cc(C(=O)OC)c1 | inactive: -3.58% |  |
| O=C1COc2ccc(Nc3ccccc3)nc2CN1CCOc1ccccc1 |  | active: 39.8 µM |
| COc1ccc(NC(=O)c2c(NC(=O)COc3ccc(Cl)cc3)sc3c2CCCCC3)cc1 | inactive: -11.6% |  |
| O=C(NCc1nnc2ccc(-c3ccccc3)nn12)c1cc2ccccc2[nH]1 |  | inconclusive: 25.1 µM [inhibitor, partial curve] |
| Cc1cccc(-c2nc3cc(NC(=O)Cc4ccc(Cl)cc4)ccc3o2)c1 |  | inconclusive: 15.8 µM [inhibitor, partial curve, poor fit] |
| O=C(O)C1CCc2nnc(C3CCN(C(=O)C4CCCCC4)CC3)n21 (configuration not stated) |  | inconclusive: 89.1 µM [inhibitor, partial curve] |
| CCN(CC)CCOC(=O)c1ccc(NC(=O)c2nn(-c3ccc(C)cc3)c(=O)c3c2c2ccccc2n3C)cc1 |  | inconclusive: 5.62 µM [inhibitor, partial curve, poor fit] |
| Cc1cn2nc(C(=O)N3CCC(NC(=O)c4cccc(Cl)c4)CC3)cc2c(=O)[nH]1 |  | inconclusive: 12.6 µM [inhibitor, partial curve, poor fit] |
| O=C(NCCCN1CCN(c2ccc(F)cc2)CC1)c1cc2c(s1)-c1ccccc1OC2 |  | inconclusive: 25.1 µM [inhibitor, partial curve, poor fit] |

| SMILES | activity change, negative = inhibition | Potency |
| --- | --- | --- |
| Cc1ccc(-c2ncc(C(=O)Nc3ccc(F)cc3C)c(-c3ccncc3)n2)cc1 | inactive: 10.3% |  |
| CC1=C(C(N)=O)C(c2cccc(C)c2)n2nc(-c3ccc(Cl)cc3)nc2N1 (configuration not stated) |  | inconclusive: 35.5 µM [inhibitor, single point] |
| COc1cccc(C(=O)Nc2ccc3ncnc(N4CCCCC4)c3c2)c1 | inactive: -25.6% |  |
| CC(C)c1cc(NCCC(=O)NC2CCCCC2)n2nccc2n1 |  | inconclusive: 31.6 µM [inhibitor, partial curve, poor fit] |
| Cn1cnc(C(=O)N2CCC3(CC2)CN(Cc2ccccc2)CC3CO)c1 (configuration not stated) |  | inconclusive: 15.8 µM [inhibitor, partial curve, poor fit] |
| Cn1ccc2cc(S(=O)(=O)N3CCCN(C(=O)Nc4ccc(Br)cc4)CC3)ccc21 |  | inconclusive: 7.94 µM [inhibitor, partial curve, poor fit] |
| Cc1ccc(Nc2c(-c3ccc(N(C)C)cc3)nc3ccccn23)cc1 |  | inconclusive: 1.78 µM [inhibitor, partial curve, poor fit] |
| O=C(NCc1ccc(C(F)(F)F)cc1F)[C@H]1CCC[C@@H](O)C1 | inactive: 0.752% |  |
| COCCN1CCC(C(=O)N2Cc3cnc(CC(C)C)nc3C2)CC1 |  | inconclusive: 12.6 µM [inhibitor, partial curve] |
| O=C(NCc1nnc2cc(-c3nc(C4CC4)no3)ccn12)C1CCC1 |  | active: 25.1 µM |
| Cc1noc(C)c1-c1cc2cc(C(C)C)oc2c(-c2cccnc2)n1 |  | active: 31.6 µM |
| Cc1ccc(-c2nnc(Nc3ccc(Cl)cc3)c3ccccc23)cc1S(=O)(=O)NCC1CCCO1 (configuration not stated) |  | inconclusive: 28.2 µM [inhibitor, partial curve, poor fit] |
| CN(C)C(=O)N1CCC2(CC1)CN(C(=O)c1ccnc(N)c1)Cc1ccccc1O2 |  | active: 79.4 µM |
| COc1ccc2c(c1)c(C(=O)N/N=C/c1ccccc1Cl)c(C)n2C |  | inconclusive: 31.6 µM [inhibitor, single point] |
| COc1cccc(CCC(=O)N2CCC(Cc3nc(-c4cccc(OC)c4)no3)CC2)c1 |  | inconclusive: 10 µM [inhibitor, partial curve, poor fit] |
| CCN1c2cc(C(=O)Nc3cccc(OC)c3)ccc2C(=O)N2CCCCCC21 (configuration not stated) |  | inconclusive: 28.2 µM [inhibitor, partial curve, poor fit] |
| CCOc1ccc2[nH]c3c(=O)n(CCc4ccc(OC)cc4)cnc3c2c1 |  | inconclusive: 28.2 µM [inhibitor, partial curve, poor fit] |
| COc1ccc(OC)c(C2C=C(C34CC5CC(CC(C5)C3)C4)NC(=S)N2)c1 (configuration not stated) |  | inconclusive: 25.1 µM [inhibitor, partial curve, poor fit] |
| COc1ccccc1NC(=O)N1CC=C(c2c[nH]c3ccccc23)CC1 |  | inconclusive: 22.4 µM [inhibitor, partial curve, poor fit] |
| CSc1ccc(CNC(=O)c2ccc3c(c2)N(C)C2CCCCN2C3=O)cc1 (configuration not stated) |  | inconclusive: 28.2 µM [inhibitor, partial curve, poor fit] |
